# Test results reported in the supplement of paper PMC4967469.
# Assays:
# Experiment in all cases: Viability of human cancer cell lines after 72 h of drug (GDSC screen)
# [1] = compound: CC(=O)O[C@@]12CO[C@@H]1C[C@H](O)[C@@]1(C)C(=O)[C@H](O)C3=C(C)[C@@H](OC(=O)[C@H](O)[C@@H](NC(=O)OC(C)(C)C)c4ccccc4)C[C@@](O)([C@@H](OC(=O)c4ccccc4)[C@H]21)C3(C)C [Docetaxel]; conditions: top dose 0.0125 µM
# Protocol: (§1)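 Human cancer cell lines in 384-well plates, medium with 10% serum, drug for 72 h over a 256-fold dose range (nine 2-fold or five 4-fold steps up to the top dose). Adherent lines were fixed and stained with the nucleic acid dye Syto60, suspension lines read with resazurin; signal relative to control wells, capped at 0 and 100%. One two-parameter sigmoid per drug and line, fitted in a mixed model over all curves with the slope shared within a line.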
# [2] = compound: O=C(/C=C/c1cccc(S(=O)(=O)Nc2ccccc2)c1)NO [Belinostat]; conditions: top dose 20 µM; top dose inferred
# Protocol: as §1
# [3] = compound: Cc1sc2c(c1C)C(c1ccc(Cl)cc1)=N[C@@H](CC(=O)OC(C)(C)C)c1nnc(C)n1-2 [JQ1]
# Protocol: as §1
# [4] = compound: CC1(C)CNc2cc(NC(=O)c3cccnc3NCc3ccncc3)ccc21 [AMG-706]; conditions: top dose 2 µM; top dose inferred
# Protocol: as §1
# [5] = compound: CCOc1nc(NC(=O)Cc2cc(OC)ccc2OC)cc(N)c1C#N [JNK Inhibitor VIII]; conditions: top dose 10 µM; top dose inferred
# Protocol: as §1
# [6] = compound: Cc1ccc(C(=O)N(CCCN)[C@@H](c2nc3cc(Cl)ccc3c(=O)n2Cc2ccccc2)C(C)C)cc1 [SB-715992]; conditions: top dose 0.128 µM; top dose inferred
# Protocol: as §1
# [7] = compound: C[C@]1(O)C[C@@H](c2nc(-c3ccc4ccc(-c5ccccc5)nc4c3)c3c(N)nccn32)C1 [OSI-906]; conditions: top dose 2.56 µM; top dose inferred
# Protocol: as §1
# [8] = compound: COC(=O)[C@H](CCSC)NC(=O)c1ccc(NC[C@@H](N)CS)cc1-c1ccccc1 [FTI-277]; conditions: top dose 1.024 µM; top dose inferred
# Protocol: as §1
# [9] = compound: CN1CCN(c2ccc([N+](=O)[O-])c3no[n+]([O-])c23)CC1 [NSC-207895]; conditions: top dose 20 µM; top dose inferred
# Protocol: as §1
# [10] = compound: c1ccc2c(CCNc3ccc(Nc4ccncc4)cc3)c[nH]c2c1 [JNJ-26854165]; conditions: top dose 10 µM
# Protocol: as §1
# [11] = compound: COCC[n+]1c2c(n(Cc3cnccn3)c1C)C(=O)c1ccccc1C2=O [YM155]; conditions: top dose 5.12 µM
# Protocol: as §1
# [12] = top dose 1 µM, screen: GDSC drug entry 1218, top dose inferred
# [13] = top dose 2.56 µM, screen: GDSC drug entry 163
Cell Line,AUC [1],IC50 [1] [nM],AUC [2],IC50 [2] [nM],"AUC [3, 12]","IC50 [3, 12] [nM]","AUC [3, 13]","IC50 [3, 13] [nM]",AUC [4],IC50 [4] [nM],AUC [5],IC50 [5] [µM],AUC [6],IC50 [6] [nM],AUC [7],IC50 [7] [nM],AUC [8],IC50 [8] [nM],AUC [9],IC50 [9] [µM],AUC [10],IC50 [10] [µM],AUC [11],IC50 [11] [nM]
"BHT-101 (thyroid, adherent)",0.853,10.2,0.288,309,0.977,> 1000,0.777,1060,0.943,> 2000,0.864,9.19,0.964,> 128,0.927,> 2560,0.973,> 1020,0.861,17.8,0.915,> 10,0.241,55.5
"BICR10 (head and neck, adherent)",0.662,2.37,0.771,8880,0.981,> 1000,0.69,597,0.952,> 2000,0.936,> 10,0.953,> 128,0.891,> 2560,0.918,> 1020,0.917,> 20,0.843,8.76,0.206,37.1
"BICR78 (head and neck, adherent)",0.501,0.786,0.377,542,0.971,> 1000,0.613,344,0.921,> 2000,0.94,> 10,0.914,> 128,0.98,> 2560,0.916,> 1020,0.949,> 20,0.844,8.83,0.046,< 20
"BT-20 (breast, adherent)",0.719,3.84,0.648,3560,0.981,> 1000,0.918,> 2560,0.984,> 2000,0.975,> 10,0.671,27,0.978,> 2560,0.967,> 1020,0.957,> 20,0.949,> 10,0.074,< 20
"BT-483 (breast, adherent)",0.977,> 12.5,0.937,> 20000,0.969,> 1000,0.845,> 2560,0.975,> 2000,0.977,> 10,0.977,> 128,0.955,> 2560,0.977,> 1020,0.83,> 20,0.893,> 10,0.273,39.6
"C3A (liver, adherent)",0.934,> 12.5,0.722,5490,0.984,> 1000,0.754,895,0.978,> 2000,0.988,> 10,0.987,> 128,0.984,> 2560,0.985,> 1020,0.988,> 20,0.934,> 10,0.965,> 5120
"C-33-A (cervix, adherent)",0.695,2.76,0.218,186,0.861,854,0.787,1120,0.971,> 2000,0.973,> 10,0.732,36.7,0.967,> 2560,0.974,> 1020,0.586,2.15,0.887,> 10,0.029,< 20
"CAL-27 (head and neck, adherent)",0.399,0.411,0.341,447,0.949,> 1000,0.938,> 2560,0.986,> 2000,0.959,> 10,0.616,16.8,0.985,> 2560,0.979,> 1020,0.942,> 20,0.942,> 10,0.107,< 20
"CAL-29 (bladder, adherent)",0.543,1.03,0.529,1500,0.958,> 1000,0.636,393,0.973,> 2000,0.961,> 10,0.959,> 128,0.984,> 2560,0.984,> 1020,0.934,> 20,0.829,6.87,0.098,< 20
"CAL-33 (head and neck, adherent)",0.454,0.585,0.554,1750,0.966,> 1000,0.52,181,0.943,> 2000,0.927,> 10,0.678,25.1,0.981,> 2560,0.973,> 1020,0.975,> 20,0.851,7.7,0.085,< 20
"CAL-39 (cervix, adherent)",0.66,2.22,0.55,1720,0.98,> 1000,0.702,609,0.983,> 2000,0.986,> 10,0.926,> 128,0.857,2210,0.943,> 1020,0.931,> 20,0.925,> 10,0.4,168

# The IC50 comes from the fitted curve, where viability falls to half of the control; where the fit passes the top or lowest dose, that dose stands as a limit. AUC is the area under the same curve over the 256-fold range up to the top dose, as a fraction; values near 1 show little effect. For part of these data: Where the top dose is marked as inferred, it was derived from the fitted curves, not read from the paper. For part of these data: An entry number marks a drug with two screens in the source, which often give different values.
